According to the RNAGym collection of RNA variant scans (doi:10.1093/nar/gkz1192):
The source gives no read counts; variants with many changes may rest on few reads.

B1: CPEB3 Ribozyme (parent)
chain: UAACAGGGGGCCACAGCAGAAGCGUUCACGUCGCAGCCCCUGUCAGAUUCUGGUGAAUCUGCGAAUUCUGCUGUAUAUCUC

Variants of: B1
Experiment: self-cleavage, relative activity (ratio to wild type); higher = more cleavage; in vitro, sequencing
How it was run: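 Relative activity was defined as the cleaved/total read fraction for a variant divided by the same fraction for the unmutated ribozyme. CPEB3 self-cleaving ribozyme libraries were made by rounds of error-prone PCR, barcoded, and transcribed in vitro with T7 RNA polymerase for 5 hours at 37°C, and cleavage ran through transcription plus a 15 min DNase I step before EDTA. Illumina sequencing of template-switched reverse transcripts gave the reads, and DNA sequencing mapped the barcodes. Averages come from three batches, using variants with at least 5 reads.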

Variant | self-cleavage
A21U G24A U41C U48C U51A A64G | 0.07
A21G A47G U72A | 0.32
A21G A28G G46C | 0.26
A21G U25C U60C G70C | 0.08
A21G G63A U69G | 0.18
A21G U31A U80A | 0.32
A21U G24A C79A | 0.06
A21G A45G A56G U74A | 0.23
A20U U51A A75U C79U | 0.19
A21G U41A A45U G61A U66A | 0.1
A21G U25C U26C U41C | 0.08
A21G U25C U78A | 0.35
A21U A35U A45U U66C U80G | 0.07
A21G U49C A64C | 0.15
A21G C38A U69C | 0.1
A20U U54A U60A | 0.23
A21G G22C A45U U74G | 0.24
A21G A28U U41C G53A U72C | 0.3
A21G U31C C39G U78A | 0.03
A21U G33A A45U U54C | 0.1
A21G A47G U58C | 0.93
A21U U72C C79G | 0.68
A21G U58C A65G U69C | 0.13
A21G A35G C37U U41C | 1.18

Variant | self-cleavage
A21G A28G U43C U80C | 0.38
A21U U41C A47G | 0.44
A21G A28G U69C G70A | 0.28
A21G A35G A47G | 1.14
G22A U67C U72A A77G | 0.08
A21G U31C U78C | 0.23
A21U U31G U43C A57U C79G | 0.06
A21G A28G U41A U43C | 0.08
A21G C27G U72A A75G | 0.12
A21G A56U U60C U67C | 0.12
A21U U26C G61A | 0.4
A21U U48C C62A | 0.16
A21G U31A U69C | 0.14
A21G A28G A45U U48C G63U | 0.53
A21G U43C A64G | 0.16
A21U U41C A64U U72A | 0.08
A21G C32G C37U C38G A75G U80C | 0.03
A21G A35G U51C | 1.17
A21G A28U U31A U41C U48C | 0.23
G22A A28G U72C | 0.48
A21G G42A A45G U66A | 0.34
A21C A28G U54G U58C U74C U78A | 0.03
A21U A65U U69C | 0.12
A21G U51A A77G U78C | 0.21

Variant | self-cleavage
A21G G53A G55C A75G | 0.47
A21U U25C U43A U72A | 0.13
A21G G52A C68U | 0.34
A21G C44G U48C G63A | 0.18
A21G U41A A65G U69C U72A U78G | 0.11
G22A U41A U49C U69A G73A | 0.06
A21G G24U U31C U54C | 0.06
A21G C27A U51A U60C C71U | 0.04
A21U U43A U69C | 0.13
A21G A45U A65U | 0.14
G22A U31A A35G U41A C62G A64G | 0.16
G22A U25C A57G | 0.16
A20U U49A U69A | 0.1
A20U U72G U80A | 0.19
A20U U51A A57G U69C | 0.11
A21G A45G A64G U72C U78C | 0.13
A21U A75U U76A U80A | 0.38
A21G U41C A65G | 0.47
A21G U25C U26C A28U U43C U72A | 0.19
A20U U43C U48C G55C | 0.13
A21G U43C A45U U58A | 0.14
A21G U43A A64G U80A | 0.56
A21G C37U C40A | 0.08
A20U U43C U69A C71A U72C | 0.11

Variant | self-cleavage
A21G U26C C38U G46A U49A | 0.04
A21G U69C U76C | 0.39
A21U U69A U80C | 0.17
A21G A28C U31C A45U | 0.19
A21G U49C U54C U69C | 0.05
A21G U60C G61A | 0.2
A21G U41C U51C C68U A75U | 0.28
A21U U54C U60C | 0.28
A21G A28G U58A | 0.21
A21G A28U U72C A75G A77G | 0.16
A21G C23U U25C A64U | 0.39
A21U U43C G53C A77U | 0.16
A21G U26A A28G U51C | 0.05
A21G U41A U51A U58A | 0.15
A21U A45G G53A A64G | 0.07
A20U U60C A65G | 0.14
G22C U48C A56G | 0.09
A21C U49C U67C A75G | 0.1
A21G U43C U66C U72A U78C U80C | 0.43
A21G A35G U51C A56U A64G | 0.49
A21G U31C U49A A77G | 0.07
A21G A56G U66A | 0.14
A21G C39G U49C U51C U60G | 0.08
A21G U41C U66C | 1.04

Variant | self-cleavage
G22A U25C U66C | 0.07
A21G U26G G63A | 0.07
A21G A45C A47G G52C U69A U78A | 0.16
G22A U41A A56G A64U U72C | 0.05
A21G A28G U41A U43C U72G | 0.32
A21U U25C A45U | 0.07
A21U U26A C37A U58C G70A U78C | 0.03
A21G G22A A47G U58C U80C | 0.12
A21G U48C U69A | 0.12
G22A A57G U60C | 0.12
A21G G22A U31C U41C U43A U54A U69C | 0.07
A21G U41G U51C U60C C71A | 0.86
A21G G42A U43A A56U | 0.37
A21C G33C A57G U72C | 0.14
A21G A28U U48C U60C | 0.08
A21G U76C U78C | 0.56
A21G U26A A35G C68A | 0.51
A21G U26C A47G U72C A77C | 0.04
A21G C23U C50A A75G U78C | 0.15
A20U U51C U60C | 0.21
G22A U26A A28C | 0.14
A21G G52U C62U U80C | 0.19
A20U U43C A45C U80C | 0.24
A21G A45U U74A A75U | 0.51

Variant | self-cleavage
G22A U41A U49A U67A U80C | 0.06
A21C A45U U66C | 0.13
A21C A57G C71A | 0.05
A21C U54C U58C | 0.17
A20U U43A U72C | 0.19
G22C U43A C59U U76C | 0.08
A21G C62G A64G U76A U80C | 0.03
A21G C37G C44A A45U U58C U66C U72G | 0.04
G22A U26C A57G U67C | 0.09
A21U U25C U78A U80A | 0.1
A21G U25A C38A | 0.12
G22A A28G A64G U66A | 0.05
A21G A28U C44U A47G G53C G61C U69A | 0.02
G22A A35G U74A | 0.9
A21G U26C U49C A75G U80C | 0.04
A21U A35G A57U U58C U72C | 0.27
A21G U54C G63A | 0.49
A21G U26A A28U U58A U69C | 0.11
A21U C29U A56U | 0.16
A21G G24C C27U A35U U54C | 0.06
A21U U41G A47G A65U U66C U69A | 0.18
A21U U41C U67C | 0.24
A21G C29U C38U A45U | 0.16
A21G U41A A57G | 0.08

Variant | self-cleavage
A21G C38U U76C | 0.6
A21G A28U U74A | 0.84
A21G G42U U60A | 0.25
A21G A35C U60A A64G | 0.1
A21G A28G A35G U58C | 0.16
G22A U69A U74C | 0.16
A21C A65G A77G | 0.15
A21U U26A A35C A65G U67C | 0.32
A21G G61A U74C A77U | 0.93
A21G U72C A77U | 0.82
A21U C37A U60C A64G | 0.06
A21G U25C U54A A64G U80C | 0.13
A21G A28G U49A U60G | 0.22
A21G C29U C38G U48C U60C | 0.08
A21G U41A U58C | 0.29
A21G U25A U31A U43C U54C | 0.21
A21U U51C U66C | 0.45
A21G A35C A56U U72G | 0.3
A21G U25A U60C A65G | 0.01
A21G U25C U54C C59U U72C | 0.1
A21G A28G U31C U43A A56G A64U U66C | 0.07
A21G U31C U54C A57G A64U | 0.02
A21G C29A U49C U80C C81U | 0.1
